# In PubChem BioAssay (NCATS):
# Several values for one entry are separate records, joined by “and”; a condition that tells them apart may be missing. Equal values may be shown once. This list was built around the results that the source calls inconclusive (neither active nor inactive); the mix of calls is not that of the screen. For some of these results: Potencies of inconclusive entries are doubtful fits and often do not repeat. Activity calls are given as the source filed them. Calls follow the shape of the dose curve; as a rule, active = well fitted curve in the direction sought with a large enough effect; inconclusive = small, poorly fitted or top-dose-only effect, or another doubt; inactive = no such curve, though single readings can be large; an effect the other way counts as inactive or inconclusive.
# How the values were obtained:
# [1] = qHTS of pediatric cancer cell lines to identify multiple opportunities for drug repurposing: Primary screen for BT-37 cells (AID 1347094); also: potency is read from the fitted curve at half-maximal effect
# How it was run: (§1)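 Following a 5-hour attachment period, cells at 500-1,000/well received compounds and were cultured for 48 hours. CellTiter-Glo was added and luminescence read to estimate viable, metabolically active cells.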
# [2] = qHTS of pediatric cancer cell lines to identify multiple opportunities for drug repurposing: Primary screen for NB-EBc1 cells (AID 1347095); also: potency is read from the fitted curve at half-maximal effect
# How it was run: as §1
# [3] = qHTS of pediatric cancer cell lines to identify multiple opportunities for drug repurposing: Primary screen for LAN-5 cells (AID 1347100); also: potency is read from the fitted curve at half-maximal effect
# How it was run: (§2)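 Cells (500-1,000/well) in growth media were settled 5 h at 37 degrees C, then given compounds for 48 h. Viability was read as CellTiter-Glo luminescence. Primary runs used MIPE at 11 points (0.78 nM-46 µM) and NPC at 8 points (0.59 nM-46 µM); follow-ups used 11 points.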
# [4] = qHTS of pediatric cancer cell lines to identify multiple opportunities for drug repurposing: Primary screen for Rh18 cells (AID 1347102); also: potency is read from the fitted curve at half-maximal effect; nearly all actives have a fitted effect of over 65% in size
# How it was run: as §2
# [5] = qHTS of pediatric cancer cell lines to identify multiple opportunities for drug repurposing: Primary screen for RD cells (AID 1347104); also: potency is read from the fitted curve at half-maximal effect; nearly all actives have a fitted effect of over 55% in size
# How it was run: as §1
# P94_40 = experiment: qHTS profiling for inhibitors of Plasmodium falciparum proliferation (AID 504749);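 also: 0% = DMSO vehicle and full inhibition = artemisinin control; nearly all actives have a fitted effect of over 60% in size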; settings: P. falciparum in erythrocytes, SYBR Green DNA, 72 h; series mostly up to 28.7 µM
# How it was run: (§3)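 Quantitative HTS: compounds pinned into medium, infected erythrocytes added (0.3% parasitemia, 2.5% hematocrit), 72 h culture at 37 C under 5% CO2. Saponin/Triton lysis with SYBR Green I, overnight RT, then fluorescence read.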
# [6] = NS1 protein of Zika virus - qHTS assay to identify small molecule inhibitors in human HEK 293 cells (AID 1347053); also: potency is read from the fitted curve at half-maximal effect; nearly all actives have a fitted effect of over 55% in size
# How it was run: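 TR-FRET signal from two anti-ZIKV NS1 antibodies quantified NS1 in HEK 293 cells 24 h after MR766 infection at MOI = 0.5; compounds were added 1 h before virus. Uninfected cells and infected cells defined the NS1 normalization range.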
# [7] = qHTS of pediatric cancer cell lines to identify multiple opportunities for drug repurposing: Primary screen for U-2 OS cells (AID 1347096); also: potency is read from the fitted curve at half-maximal effect; nearly all actives have a fitted effect of over 50% in size
# How it was run: as §2
# [8] = qHTS of pediatric cancer cell lines to identify multiple opportunities for drug repurposing: Primary screen for Rh30 cells (AID 1347107); also: potency is read from the fitted curve at half-maximal effect; nearly all actives have a fitted effect of over 75% in size
# How it was run: as §2
# [9] = tested on: Nanoluciferase (engineered Oplophorus gracilirostris luciferase); experiment: Primary Nanoluciferase (NLuc) qHTS assay for identification of artifact compounds. (AID 1845222);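 also: NLuc secreted into diluted conditioned medium of S16 cells; potency is read from the fitted curve at half-maximal effect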
# How it was run: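 Using secreted nanoluciferase in S16 culture medium (0.22 um filtered, 1:55 dilution), compounds were preincubated 15 min at RT. Signal was generated with Nano-Glo reagent (1:100) over 5 min.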
# MKL-1 = experiment: qHTS assay to identify novel small-molecules to repurpose for Merkel cell carcinoma treatment (AID 1296009); settings: MCC and control cell lines, CellTiter-Glo viability, 72 h; activity change, negative = cytotoxicity: at 46 µM (top of the series); also: potency is read from the fitted curve at half-maximal effect; nearly all actives have a fitted effect of over 60% in size
# How it was run: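 Viability readout: ATP luminescence (CellTiter-Glo) after 72 hr drug exposure at 37 degree celsius. Dose-response format was 8 points for NPC and 11 points for MIPE; data normalized to in-plate controls.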
# [10] = qHTS of pediatric cancer cell lines to identify multiple opportunities for drug repurposing: Primary screen for MG 63 (6-TG R) cells (AID 1347105); settings: MG 63 (6-TG R) viability, CellTiter-Glo, 48 h; activity change, negative = cytotoxic: at 46 µM (top of the series) unless noted; also: potency is read from the fitted curve at half-maximal effect; nearly all actives have a fitted effect of over 50% in size
# How it was run: as §1
# [11] = qHTS of pediatric cancer cell lines to identify multiple opportunities for drug repurposing: Primary screen for Rh41 cells (AID 1347108); also: nearly all actives have a fitted effect of over 70% in size; also: potency is read from the fitted curve at half-maximal effect;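 as to activity change, negative = cytotoxic: luminescence drop marks cytotoxic hits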
# How it was run: as §1
# astro = experiment: Drug repurposing screens with cells derived from glioblastoma tumor samples (AID 1345199); settings: viability, ATP luminescence, 48 h; series mostly up to 45.9 µM; also: potency is read from the fitted curve at half-maximal effect; nearly all actives have a fitted effect of over 40% in size
# How it was run: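 Primary testing used CD133+ neurospheres from four GBM patients, seven concentrations, 48 h exposure and ATP-based viability; confirmation added three slower-growing patient lines.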
# [12] = qHTS to identify inhibitors of the type 1 interferon - major histocompatibility complex class I in skeletal muscle: primary screen against the NCATS Mechanism Interrogation Plate v5.0 (MIPE) Libary (AID 1347411); settings: iHSKM cells + IFN-b, HiBiT-tagged MHC-I luminescence, 24 h; activity change, negative = inhibition: at 45.8 µM (top of the series); also: nearly all actives have a fitted effect of over 65% in size; also: potency is read from the fitted curve at half-maximal effect;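 as to activity change, negative = inhibition: plate controls were vehicle for no effect and reference inhibitor for full effect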
# How it was run: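 Seed engineered human myoblasts (HLA-B HiBit) in medium without dexamethasone containing 4 ng/ml IFN-beta; after 1 hr add compound titrations (top 46 uM final). Incubate 24 hrs at 37 C, lyse 10 min with HiBiT reagent, read luminescence.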
# [13] = qHTS of pediatric cancer cell lines to identify multiple opportunities for drug repurposing: Primary screen for A673 cells (AID 1347092); settings: A673 Ewing sarcoma viability, CellTiter-Glo ATP luminescence, 48 h; activity change, negative = cytotoxic: at 46 µM (top of the series); also: nearly all actives have a fitted effect of over 45% in size; also: potency is read from the fitted curve at half-maximal effect; as to activity change, negative = cytotoxic: % is scaled to controls: 0 for no effect and ±100 for the full control effect
# How it was run: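 Cells are plated, rested 5 h, dosed by pintool, incubated 48 h, then lysed with CellTiter-Glo and read by luminescence. DMSO is the neutral control; bortezomib at 2.3 uM final is the positive control.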
# [14] = molecular target: Glutathione peroxidase 1 (Homo sapiens) (UniProt P07203); experiment: Primary qHTS Assay for Inhibitors of Recombinant Selenoprotein Glutathione Peroxidase 1 (GPX1) (AID 1845191); settings: activity, negative = inhibition: at 48.8 µM (top of the series); also: potency is read from the fitted curve at half-maximal effect; nearly all actives have a fitted effect of over 65% in size
# UniProt P07203, sequence (P07203 whole entry, looked up): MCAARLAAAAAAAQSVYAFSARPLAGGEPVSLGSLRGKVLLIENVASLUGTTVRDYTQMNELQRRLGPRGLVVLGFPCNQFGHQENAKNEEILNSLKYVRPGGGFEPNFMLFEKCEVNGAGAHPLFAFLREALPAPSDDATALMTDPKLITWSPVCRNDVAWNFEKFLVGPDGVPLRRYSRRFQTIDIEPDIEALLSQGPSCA
# How it was run: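 GPX1 10 nM, GR 100 nM, GSH 1 mM, NADPH 0.5 mM, CHP 0.5 mM (final). 30-min cpd preincubation, RT. Ex340/Em450 read t=0, t=15 min.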
# P93_24 = experiment: qHTS profiling for inhibitors of Plasmodium falciparum proliferation (AID 504749);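 also: 0% = DMSO vehicle and full inhibition = artemisinin control; nearly all actives have a fitted effect of over 60% in size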; settings: P. falciparum in erythrocytes, SYBR Green DNA, 72 h; series mostly up to 28.7 µM
# How it was run: as §3
# Tags tell the direction and shape of the fitted curve.
structure (smiles),measurement,setting,value
C#C[C@]1(O)CC[C@H]2[C@@H]3CCC4=Cc5oncc5C[C@]4(C)[C@H]3CC[C@@]21C,Potency,[1],"inconclusive: 38.9 µM [cytotoxic, single point]"
same,Potency,[2],"inconclusive: 29.9 µM [cytotoxic, single point]"
same,Potency,[3],"inconclusive: 23.7 µM [cytotoxic, single point]"
same,Potency,[4],"inconclusive: 13.3 µM [cytotoxic, partial curve]"
same,Potency,[5],"inconclusive: 29.9 µM [cytotoxic, single point]"
same,Potency,P94_40,inactive
C=CC(=O)Nc1ccc2ncnc(Nc3ccc(OCc4cccc(F)c4)c(Cl)c3)c2c1,Potency,[6],active: 10.5 µM
same,Potency,[7],active: 5.9 µM
same,Potency,[8],"inconclusive: 5.9 µM [cytotoxic, partial curve]"
same,Potency,[9],"inconclusive: 26.9 µM [inhibitor, partial curve, poor fit]"
same,Potency,MKL-1,active: 0.118 µM
O=C1NCCN1CCN1CCC(c2cn(-c3ccc(F)cc3)c3ccc(Cl)cc23)CC1,Potency,[1],"inconclusive: 27.6 µM [cytotoxic, single point]"
same,Potency,[7],"inconclusive: 21.1 µM [cytotoxic, single point]"
same,Potency,[4],"inconclusive: 26.6 µM [cytotoxic, single point]"
same,Potency,[10],"inconclusive: 26.6 µM [cytotoxic, single point]"
same,Potency,[11],"inconclusive: 16.8 µM [cytotoxic, partial curve]"
same,Potency,astro,"active: 17.8 µM and inconclusive: 20 µM [inhibitor, single point]"
O=C(NC[C@H](O)CN1CCc2ccccc2C1)c1cc(NC2COC2)ncn1,Potency,[12],inactive
COc1cc2ncnc(Nc3ccc(O)c(Br)c3)c2cc1OC,Potency,[12],"inconclusive: 14.7 µM [inhibitor, partial curve]"
CCN(c1cc(-c2ccc(CN3CCOCC3)cc2)cc(C(=O)NCc2c(C)cc(C)[nH]c2=O)c1C)C1CCOCC1,Potency,[12],inactive
same,Potency,[9],"inconclusive: 23.9 µM [inhibitor, partial curve]"
C/C(=C1\CCOC(=O)S1)N(C=O)Cc1cnc(C)nc1N,Potency,[13],inactive
same,Potency,[11],inactive
COc1ccc2cc1Oc1ccc(cc1)C[C@H]1c3c(cc4c(c3Oc3cc5c(cc3OC)CCN(C)[C@@H]5C2)OCO4)CCN1C,Potency,[6],"inconclusive: 35.5 µM [inhibitor, single point]"
same,Potency,[2],"inconclusive: 13.3 µM [cytotoxic, partial curve, poor fit]"
same,Potency,[7],"inconclusive: 21.1 µM [cytotoxic, partial curve]"
same,Potency,[3],"inconclusive: 29.9 µM [cytotoxic, single point]"
same,Potency,[4],"inconclusive: 26.6 µM [cytotoxic, single point]"
same,Potency,[10],"inconclusive: 33.5 µM [cytotoxic, single point]"
same,Potency,[11],"inconclusive: 13.3 µM [cytotoxic, single point]"
same,Potency,[14],"inconclusive: 7.18 µM [inhibitor, full curve]"
same,Potency,astro,"inconclusive: 12.6 µM [inhibitor, partial curve]"
O=C(C(c1ccccc1)c1ccccc1)N1CCN(CC(O)COc2cccc3ncccc23)CC1 (stereo unspecified),"activity change, negative = inhibition",[12],inconclusive: -33.6% [inhibitor]
CCCCCCc1ccc(O)cc1O,Potency,[13],"inconclusive: 13.3 µM [cytotoxic, partial curve, poor fit]"
same,Potency,[2],"inconclusive: 11.9 µM [cytotoxic, partial curve, poor fit]"
same,Potency,P93_24,inactive
same,Potency,astro,"inconclusive: 28.2 µM [inhibitor, partial curve, poor fit]"
Cc1cc(C(C)(C)C)c(O)c(C(C)(C)C)c1,Potency,[13],inactive
CCS(=O)(=O)N1CC(CC#N)(n2cc(-c3ncnc4[nH]ccc34)cn2)C1,Potency,[1],"inconclusive: 38.5 µM [cytotoxic, single point]"
same,Potency,[2],"inconclusive: 13.2 µM [cytotoxic, partial curve]"
same,Potency,[4],"inconclusive: 20.9 µM [cytotoxic, partial curve]"
same,Potency,[5],"inconclusive: 29.6 µM [cytotoxic, single point]"
same,Potency,[8],"inconclusive: 18.7 µM [cytotoxic, partial curve]"
same,Potency,[12],"inconclusive: 2.62 µM [inhibitor, full curve]"
same,Potency,[14],"inconclusive: 22.7 µM [inhibitor, single point] and inconclusive: 5.15 µM [inhibitor, single point]"
COc1cc(CCC2=NN=C(NC(=O)c3ccc(N4C[C@@H](C)N[C@@H](C)C4)cc3)C2)cc(OC)c1,Potency,[9],"inconclusive: 26.9 µM [inhibitor, partial curve]"
